Each structure is given as a SMILES string. Where “and” joins values, the source holds several entries; their conditions need not be identical. Identical values can stand only once. Counter-ions that a name gives are not always drawn. ± gives the standard deviation of the averaged measurements. Whole data set: some 2,600 compounds, median “total cell number (DAPI+ nuclei) relative to DMSO vehicle control” near -1.4, cut for the lowest 2% near -23. The list shows a part of the results.

The record followed here is the supplement of paper PMC6135742.

This assay deals with jimpy (Plp1 jimpy) mouse iPSC-derived oligodendrocyte progenitor cells. As to the kind of experiment: total cell number (DAPI+ nuclei) relative to DMSO vehicle control (SDs above negative control mean); higher = more surviving cells. The following applies: 10 µM; 3 days.
In turn, `C=C1C(=O)O[C@@H]2/C=C(\C)CC/C=C(\C)CC[C@@H]12` [Costunolide] came in with a total cell number of -21.

`O=C(Nc1ccccc1)c1cc([N+](=O)[O-])ccc1Cl` showed a total cell number of -3.05 ± 0.71.

The molecule `CO/N=C(\C(=O)N[C@@H]1C(=O)N2C(C(=O)OCOC(=O)C(C)(C)C)=C(/C=C\c3scnc3C)CS[C@H]12)c1csc(N)n1` [Cefditoren Pivoxil] gave a total cell number of 1.67.

Regarding `CCC(=O)N1CCN(c2ccc(-n3c(=O)ccc4cnc5ccc(-c6cnc7ccccc7c6)cc5c43)cc2C(F)(F)F)CC1` [Torin 1], the total cell number was -8.12.

`O=C(CCc1ccc(O)cc1)c1c(O)cc(O)cc1O[C@@H]1O[C@H](CO)[C@@H](O)[C@H](O)[C@H]1O` [Phlorizin] came in with a total cell number of -0.632.

Take `O=[N+]([O-])c1ccc(-c2nc(-c3ccc(F)cc3)c(-c3ccncc3)[nH]2)cc1`: the total cell number was -3.

The molecule `Oc1ncnc2[nH]ncc12` [Allopurinol] registered a total cell number of 0.0628 ± 2.7.

Molecule `CN(N=O)C(=O)NC1C(O)OC(CO)C(O)C1O` (stereo unspecified) [Streptozotocin (STZ)] registered a total cell number of 0.253.

As for `C=C[C@]1(C)C[C@@H](OC(=O)CS[C@@H]2C[C@H]3CC[C@@H](C2)N3C)[C@]2(C)[C@H](C)CC[C@]3(CCC(=O)[C@H]32)[C@@H](C)[C@@H]1O` [Retapamulin], the total cell number was -0.832.

With `S=C(S)OC1CC2CC1C1CCCC21` [D-609 potassium], the total cell number is -1.99.

In the case of `CNCCCC1c2ccccc2C=Cc2ccccc21` [Protriptyline hydrochloride], the total cell number is -6.64.

Turning to `CCOC(=O)C1=C[C@@H](OC(CC)CC)[C@H](NC(C)=O)[C@@H](N)C1` [Oseltamivir phosphate], the total cell number turned out to be 0.306.

`C[C@]12CCC(=O)C=C1CC[C@@H]1[C@@H]2[C@@H](O)C[C@@]2(C)[C@H]1CC[C@]2(O)C(=O)CO` [Hydrocortisone] displayed a total cell number of 3.57 ± 2.3.

As to `Cn1cc(CNCC2CCN(c3ncc(C(=O)NO)cn3)CC2)c2ccccc21`, the total cell number is -20.1.

The molecule `CC(=O)[C@H]1CC[C@H]2[C@@H]3CCC4=CC(=O)CC[C@]4(C)[C@H]3CC[C@]12C` [Progesterone] returned a total cell number of 5.32 ± 2.5.

`CN(C)CC/C=C1/c2ccccc2Sc2ccc(Cl)cc21` [Chlorprothixene]: the total cell number is -10.6.

`CN(C)CC/C=C1/c2ccccc2Sc2ccc(Cl)cc21` [Chlorprothixene hydrochloride] came in with a total cell number of -8.65.

The molecule `OC(CN1CCC(Cc2ccc(F)cc2)CC1)c1ccc(Cl)cc1` (stereo unspecified) [Eliprodil] yielded a total cell number of 2.32.

In the case of `CN(C)CCOC(c1ccccc1)c1ccccc1` [Diphenhydramine hydrochloride], the total cell number was -1.87.

In turn, `CN(C)CCOC(c1ccccc1)c1ccccc1` [Diphenhydramine HCl] showed a total cell number of -0.509.

As for `CCOC(=O)CCNc1cc(N2CCc3ccccc3CC2)nc(-c2ccccn2)n1`, the total cell number was -13.2.

`CCNC(=O)c1[nH]nc(-c2cc(Cl)c(O)cc2O)c1-c1ccc(OC)cc1`: the total cell number was -16.1.

On to `C[C@H](NC(=O)/C(C#N)=C/c1cccc(Br)n1)c1ccccc1`, for which the total cell number is -9.95.

As for `CC(C)c1ccc(NC(=O)Cn2cnc3c2c(=O)n(C)c(=O)n3C)cc1`, the total cell number was -0.803.

In turn, `C[C@]12CC[C@@H]3c4ccc(O)cc4CC[C@H]3[C@@H]1CC[C@@H]2O` [Estradiol] had a total cell number of -1.54.

Regarding `C[C@]12CC[C@@H]3c4ccc(O)cc4CC[C@H]3[C@@H]1CC[C@@H]2O` [beta-Estradiol], the total cell number is -1.83.

For the molecule `O=c1[nH]c(=S)[nH]c(-c2ccccc2)c1Cc1c(O)ccc2ccccc12` [Cambinol], the total cell number was -0.967.

`CCNC(=O)Nc1ccc(-c2nc3c(c(N4CCOC[C@@H]4C)n2)CCN(C2COC2)C3)cc1` registered a total cell number of -8.88.

`CCCN(CCC)S(=O)(=O)c1ccc(C(=O)O)cc1` [Probenecid] registered a total cell number of 1.16.

For the molecule `Nc1ncnc2c1ncn2[C@@H]1O[C@H](CO)[C@@H](O)[C@H]1O` [Adenosine], the total cell number was -1.28 ± 0.88.

`O=C(c1ccc(Nc2nccc(-c3cc4ccccc4s3)n2)cc1)N1CCC(N2CCCC2)CC1` [IKK-16 (IKK Inhibitor VII)] yielded a total cell number of -12.3.

In turn, `Clc1ccc(CSC(Cn2ccnc2)c2ccc(Cl)cc2Cl)cc1` (stereo unspecified) [Sulconazole Nitrate] displayed a total cell number of -0.639.

In the case of `Cc1cc(C)c(Nc2ccnc(Nc3ccc(C#N)cc3)n2)c(C)c1` [Dapivirine (TMC120)], the total cell number is -7.9.

`C[n+]1cc2c3c(ccc2c2ccc4cc5c(cc4c21)OCO5)OCO3` [Sanguinarine chloride] had a total cell number of -10.9.

`CO[C@H]1C[C@@H]2CC[C@@H](C)[C@@](O)(O2)C(=O)C(=O)N2CCCC[C@H]2C(=O)O[C@H]([C@H](C)C[C@@H]2CC[C@@H](OCCO)[C@H](OC)C2)CC(=O)[C@H](C)/C=C(\C)[C@@H](O)[C@@H](OC)C(=O)[C@H](C)C[C@H](C)/C=C/C=C/C=C/1C` [Everolimus (RAD001)]: the total cell number was -2.07.

Turning to `C=CC1=C(C)c2cc3[nH]c(cc4nc(cc5[nH]c(cc1n2)c(C)c5CCC(=O)O)C(CCC(=O)O)=C4C)c(C)c3C=C` [Protoporphyrin IX disodium], the total cell number is -4.32.

Regarding `CC1CNc2c(cccc2S(=O)(=O)N[C@@H](CCCNC(=N)N)C(=O)N2CC[C@@H](C)C[C@@H]2C(=O)O)C1` (stereo partly specified) [Argatroban monohydrate], the total cell number is -0.843.

The molecule `CC1CNc2c(cccc2S(=O)(=O)N[C@@H](CCCNC(=N)N)C(=O)N2CC[C@@H](C)C[C@@H]2C(=O)O)C1` (stereo partly specified) [Argatroban] showed a total cell number of -0.795.

The molecule `CN(C)CCN(Cc1ccccc1)c1ccccn1` [Tripelennamine HCl] gave a total cell number of -0.852.

In the case of `COc1ccccc1N1CCN(CCN(C(=O)C2CCCCC2)c2ccccn2)CC1`, the total cell number is -1.8 and -2.44.

The molecule `Nc1ccn([C@@H]2O[C@H](CO)[C@@H](O)C2(F)F)c(=O)n1` [Gemcitabine] returned a total cell number of -3.97.

In turn, `Nc1ccn([C@@H]2O[C@H](CO)[C@@H](O)C2(F)F)c(=O)n1` [Gemcitabine hydrochloride] yielded a total cell number of -2.62.

For `CC(=O)O[C@@]12CO[C@@H]1C[C@H](O)[C@@]1(C)C(=O)[C@H](O)C3=C(C)[C@@H](OC(=O)[C@H](O)[C@@H](NC(=O)OC(C)(C)C)c4ccccc4)C[C@@](O)([C@@H](OC(=O)c4ccccc4)[C@H]21)C3(C)C` [Docetaxel], the total cell number is -10.6.

The molecule `O=C(/C=C/c1ccccc1)NC(NC(=S)Nc1cccc2cccnc12)C(Cl)(Cl)Cl` (stereo unspecified) [Salubrinal] showed a total cell number of 2.35.

For the molecule `Nc1cccc2c1C(=O)N(C1CCC(=O)NC1=O)C2=O` (stereo unspecified) [Pomalidomide], the total cell number was -0.938.

Consider `C=C1C[C@@]23CC[C@H]4[C@@](C)(CCC[C@@]4(C)C(=O)O)[C@@H]2CC[C@]1(O)C3` [Steviol], for which the total cell number was -0.619.

Consider `Oc1ccc(OC2CCCCO2)cc1` (stereo unspecified) [Deoxyarbutin], for which the total cell number is -3.34.

`O=C(O)C(O)Cc1ccc(O)c(O)c1` (stereo unspecified) [Danshensu sodium salt]: the total cell number was -1.47.

`O=C(O)C(O)Cc1ccc(O)c(O)c1` (stereo unspecified) [Sodium Danshensu] returned a total cell number of -1.54.

For the molecule `CC1(C)CCC(C)(C)c2cc(NC(=O)c3ccc(C(=O)O)cc3)ccc21` [Tamibarotene], the total cell number was -9.8.

With `N[C@@H](Cc1cc(I)c(Oc2cc(I)c(O)c(I)c2)c(I)c1)C(=O)O` [L-Thyroxine], the total cell number is -0.837.

Molecule `CN1C[C@H](O)[C@@H](O)[C@H](O)[C@H]1CO` [N-Methyl-1-deoxynojirimycin] had a total cell number of -0.745.

`O=C1Nc2ccccc2/C1=C1/Nc2ccccc2C1=O` [Indirubin]: the total cell number was -1.42.

With `CCCCc1nc2cc(/C=C/C(=O)NO)ccc2n1CCN(CC)CC` [Pracinostat (SB939)], the total cell number is -12.2.

For the molecule `O=C(O)/C=C/c1ccc(O)c(O)c1` [Caffeic Acid], the total cell number was -0.651 ± 0.44.

`CC1(C)CC(=O)c2c(C(F)(F)F)nn(-c3ccc(C(N)=O)c(N[C@H]4CC[C@H](O)CC4)c3)c2C1` gave a total cell number of -12.1.

Consider `COc1cc2nc(N(C)CCCNC(=O)C3CCCO3)nc(N)c2cc1OC` (stereo unspecified) [Alfuzosin HCl], for which the total cell number is 4.62.

As to `COc1cc2nc(N(C)CCCNC(=O)C3CCCO3)nc(N)c2cc1OC` (stereo unspecified) [Alfuzosin hydrochloride], the total cell number was -2.22.

With `Clc1ccc(Cn2c(CN3CCCC3)nc3ccccc32)cc1` [Clemizole hydrochloride], the total cell number is -0.144.

`N#CSc1cc(SC#N)c(N)nc1N` showed a total cell number of -14.3.

Regarding `CC(C)n1nc(-c2ccc3oc(N)nc3c2)c2c(N)ncnc21`, the total cell number is -6.55.

On to `N[C@@H](Cc1c[nH]c2ccc(O)cc12)C(=O)O` [5-hydroxytryptophan (5-HTP)], for which the total cell number was -0.837.

`N[C@@H](Cc1c[nH]c2ccc(O)cc12)C(=O)O` [5-Hydroxy-L-tryptophan] gave a total cell number of -2.54.

`OCC1OC(n2cnc3c(NC4CCCCC4)ncnc32)C(O)C1O` (stereo unspecified) [N6-Cyclohexyladenosine] displayed a total cell number of -1.69.

`CC(=O)Nc1nc2c(Oc3cc(-c4ccc(C(F)(F)F)cc4)ncn3)cccc2s1` displayed a total cell number of 0.904.

For `N=C(N)Nc1ccc(C(=O)Oc2ccc3cc(C(=N)N)ccc3c2)cc1` [Nafamostat Mesylate], the total cell number was -6.65.

For `C=CC(=O)Nc1cccc(Nc2nc(Nc3ccc(Oc4ccnc(C(=O)NC)c4)cc3)ncc2F)c1`, the total cell number was -15.

Turning to `CCCSc1nc(N[C@@H]2C[C@H]2c2ccc(F)c(F)c2)c2nnn([C@@H]3C[C@H](OCCO)[C@@H](O)[C@H]3O)c2n1` [Ticagrelor], the total cell number was -6.46.

`N[C@@H]1CONC1=O` [D-Cycloserine] returned a total cell number of -0.337.

With `Cn1cc(-c2cnn3c(N)c(Br)c([C@@H]4CCCNC4)nc23)cn1`, the total cell number is -8.88.

`O=C(O)COCCN1CCN(C(c2ccccc2)c2ccc(Cl)cc2)CC1` (stereo unspecified) [Cetirizine DiHCl] returned a total cell number of -4.38.

`O=C(O)COCCN1CCN(C(c2ccccc2)c2ccc(Cl)cc2)CC1` (stereo unspecified) [Cetirizine dihydrochloride] yielded a total cell number of -0.906.

Consider `C=C1C[C@@]2(O)O[C@@]3(C[C@H]2C(C)C)[C@@H](C)CC[C@@H]13` [Curcumol], for which the total cell number was -0.28.

Turning to `CCCc1c2oc(C(=O)O)cc(=O)c2cc2c(=O)cc(C(=O)O)n(CC)c12` [Nedocromil], the total cell number was -1.4.

Consider `N[C@H]1C[C@@H]1c1ccc(-c2cccc(O)c2)cc1`, for which the total cell number is -3.31.

`COc1ccc(-c2ccc3ncc4c(c3c2)n(-c2ccc(N3CCNCC3)c(C(F)(F)F)c2)c(=O)n4C)cn1` displayed a total cell number of -12.5.
